Measured values taken from the supplement of paper PMC4604168 (melanoma cell lines).
The list shows a part of the results. Most values come without repeats; read them as rough.

System: SkMel2
Experiment: cell count relative to DMSO control; melanoma cells; higher = more viable cells
Settings: library dose: low library concentration; 72 h
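Further: cell number obtained by counting DAPI-stained nuclei in high-throughput microscope images with image analysis software, screen run in 1,536-well plates.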

**Q.** For `Cc1cn(-c2cc(NC(=O)c3ccc(C)c(Nc4nccc(-c5cccnc5)n4)c3)cc(C(F)(F)F)c2)cn1` [nilotinib] + COC(=O)c1sccc1S(=O)(=O)Nc1ccc(Nc2ccccc2)cc1OC [GSK0660] (first compound 0.2 µM, partner dose 1 µM), which cell count is on record?
**A.** 101%

**Q.** With `Cn1c(=O)n(-c2ccc(C(C)(C)C#N)cc2)c2c3cc(-c4cnc5ccccc5c4)ccc3ncc21` + CO[C@@H]1[C@H](N(C)C(=O)c2ccccc2)C[C@H]2O[C@]1(C)n1c3ccccc3c3c4c(c5c6ccccc6n2c5c31)C(=O)NC4 [Midostaurin] (first compound 0.004 µM, partner dose 0.08 µM) as the compound, how does the cell count read?
**A.** 83.1%

**Q.** For `Cc1cn(-c2cc(NC(=O)c3ccc(C)c(Nc4nccc(-c5cccnc5)n4)c3)cc(C(F)(F)F)c2)cn1` [nilotinib] + NC(=O)Nc1cc(-c2cccc(F)c2)sc1C(=O)N[C@H]1CCCNC1 [AZD7762] (first compound 0.2 µM, partner dose 0.02 µM), which cell count is on record?
**A.** 107%

**Q.** For `COc1ccc(C2=N[C@@H](c3ccc(Cl)cc3)[C@@H](c3ccc(Cl)cc3)N2C(=O)N2CCNC(=O)C2)c(OC(C)C)c1` [Nutlin-3] + O=c1cc(-c2cccc3c2Sc2ccccc2S3)oc(N2CCOCC2)c1 [KU55933] (first compound 0.1 µM, partner dose 1 µM), which cell count is on record?
**A.** 96%

**Q.** With `Cc1cn(-c2cc(NC(=O)c3ccc(C)c(Nc4nccc(-c5cccnc5)n4)c3)cc(C(F)(F)F)c2)cn1` [nilotinib] + O=S(=O)(c1ccccc1)N(CC(F)(F)F)c1ccc(C(O)(C(F)(F)F)C(F)(F)F)cc1 [T0901317] (first compound 0.2 µM, partner dose 1.4 µM) as the compound, how does the cell count read?
**A.** 94.1%

**Q.** With `Cc1cc(Nc2cc(N3CCN(C)CC3)nc(/C=C/c3ccccc3)n2)n[nH]1` + Cc1ccc(NC(=O)c2cccc(N(C)C)c2)cc1NC(=O)c1ccc(O)cc1 [ZM336372] (first compound 0.04 µM, partner dose 2 µM) as the compound, how does the cell count read?
**A.** 105%

**Q.** With `Cn1c(=O)n(-c2ccc(C(C)(C)C#N)cc2)c2c3cc(-c4cnc5ccccc5c4)ccc3ncc21` + c1cc(-c2cnn3cc(-c4ccc(OCCN5CCCCC5)cc4)cnc23)ccn1 [Dorsomorphin] (first compound 0.004 µM, partner dose 0.4 µM) as the compound, how does the cell count read?
**A.** 102%

**Q.** For `COc1ccc(C2=N[C@@H](c3ccc(Cl)cc3)[C@@H](c3ccc(Cl)cc3)N2C(=O)N2CCNC(=O)C2)c(OC(C)C)c1` [Nutlin-3] + Oc1nc(-c2ccc(C(F)(F)F)cc2)nc2c1CSCC2 [XAV939] (first compound 0.1 µM, partner dose 2 µM), which cell count is on record?
**A.** 100%

**Q.** Which cell count does the source give for `Cc1cc(Nc2cc(N3CCN(C)CC3)nc(/C=C/c3ccccc3)n2)n[nH]1` + CCN(CC)CCCCNc1ncc2cc(-c3cc(OC)cc(OC)c3)c(NC(=O)NC(C)(C)C)nc2n1 [PD173074] (first compound 0.04 µM, partner dose 0.1 µM) here?
**A.** 108%

**Q.** For `Cc1cn(-c2cc(NC(=O)c3ccc(C)c(Nc4nccc(-c5cccnc5)n4)c3)cc(C(F)(F)F)c2)cn1` [nilotinib] + NCC(=O)Nc1ccc(-n2nc(C(F)(F)F)cc2-c2ccc3c(ccc4ccccc43)c2)cc1 [OSU03012] (first compound 0.2 µM, partner dose 1 µM), which cell count is on record?
**A.** 83.4%

**Q.** `Cc1cn(-c2cc(NC(=O)c3ccc(C)c(Nc4nccc(-c5cccnc5)n4)c3)cc(C(F)(F)F)c2)cn1` [nilotinib] + CO[C@@H]1[C@H](N(C)C(=O)c2ccccc2)C[C@H]2O[C@]1(C)n1c3ccccc3c3c4c(c5c6ccccc6n2c5c31)C(=O)NC4 [Midostaurin] (first compound 0.2 µM, partner dose 0.08 µM) was tested. Which cell count did it give?
**A.** 54.4%

**Q.** For `Cc1cc(Nc2cc(N3CCN(C)CC3)nc(/C=C/c3ccccc3)n2)n[nH]1` + COC(=O)c1sccc1S(=O)(=O)Nc1ccc(Nc2ccccc2)cc1OC [GSK0660] (first compound 0.04 µM, partner dose 1 µM), which cell count is on record?
**A.** 103%

**Q.** Which cell count does the source give for `COc1ccc(C2=N[C@@H](c3ccc(Cl)cc3)[C@@H](c3ccc(Cl)cc3)N2C(=O)N2CCNC(=O)C2)c(OC(C)C)c1` [Nutlin-3] + CC(C)CCN1c2nc(Nc3cc(F)c(O)c(F)c3)ncc2N(C)C(=O)C1C [BID1870] (first compound 0.1 µM, partner dose 0.2 µM) here?
**A.** 93.5%

**Q.** `COc1ccc(C2=N[C@@H](c3ccc(Cl)cc3)[C@@H](c3ccc(Cl)cc3)N2C(=O)N2CCNC(=O)C2)c(OC(C)C)c1` [Nutlin-3] + COc1ccc2c(c1)CCC1C2CCC2(C)C(NCCCCCCN3C(=O)C=CC3=O)CCC12 [U73122] (first compound 0.1 µM, partner dose 0.4 µM) was tested. Which cell count did it give?
**A.** 93.4%

**Q.** `Cc1cc(Nc2cc(N3CCN(C)CC3)nc(/C=C/c3ccccc3)n2)n[nH]1` + Oc1nc(-c2ccc(C(F)(F)F)cc2)nc2c1CSCC2 [XAV939] (first compound 0.04 µM, partner dose 2 µM) was tested. Which cell count did it give?
**A.** 92.7%

**Q.** For `COc1ccc(C2=N[C@@H](c3ccc(Cl)cc3)[C@@H](c3ccc(Cl)cc3)N2C(=O)N2CCNC(=O)C2)c(OC(C)C)c1` [Nutlin-3] + CCc1ccc(CCOc2ccc(CC3SC(=O)NC3=O)cc2)nc1 [pioglitazone] (first compound 0.1 µM, partner dose 2 µM), which cell count is on record?
**A.** 102%

**Q.** For `COc1ccc(C2=N[C@@H](c3ccc(Cl)cc3)[C@@H](c3ccc(Cl)cc3)N2C(=O)N2CCNC(=O)C2)c(OC(C)C)c1` [Nutlin-3] + O=C(CCCCCCC(=O)Nc1ccccc1)NO [vorinostat] (first compound 0.1 µM, partner dose 0.08 µM), which cell count is on record?
**A.** 87.8%

**Q.** Which cell count does the source give for `Cn1c(=O)n(-c2ccc(C(C)(C)C#N)cc2)c2c3cc(-c4cnc5ccccc5c4)ccc3ncc21` + Cn1cncc1[C@@](N)(c1ccc(Cl)cc1)c1ccc2c(c1)c(-c1cccc(Cl)c1)cc(=O)n2C [tipifarnib] (first compound 0.004 µM, partner dose 0.01 µM) here?
**A.** 74.8%
